Experimental findings from article PMC9911399, “Two distinct binding modes provide the RNA-binding protein RbFox with extraordinary sequence specificity” are described below.

Substitutions are numbered along the chain they refer to; changes in the protein carry UniProt numbers. This is one part of the list.

T1: RBFOX1 RRM (Homo sapiens, UniProt Q9NWB1 109-208)
T1 sequence: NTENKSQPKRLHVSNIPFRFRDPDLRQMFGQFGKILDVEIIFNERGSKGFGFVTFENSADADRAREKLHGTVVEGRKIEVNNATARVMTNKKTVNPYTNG

B1: CACUUCG (DNA:RNA)
RNA: GGGAGACCGGAAUUCAGAUUGUCCCACUUCGUUAAAUCCCGUCGUAGCCACCA
DNA 1: CAATCTGAATTCCGGTCTCCC
DNA 2: TGGTGGCTACGACGGGATT
B2: CUUACGC (DNA:RNA)
RNA: B1 RNA with A26U, C27U, U28A, U29C, C30G, G31C
DNA 1: CAATCTGAATTCCGGTCTCCC
DNA 2: TGGTGGCTACGACGGGATT
B3: GUGUGAG (DNA:RNA)
RNA: B1 RNA with C25G, A26U, C27G, U29G, C30A
DNA 1: CAATCTGAATTCCGGTCTCCC
DNA 2: TGGTGGCTACGACGGGATT
B4: GGACAAA (DNA:RNA)
RNA: GGGAGACCGGAAUUCAGAUUGUCCGGACAAAUUAAAUCCCGUCGUAGCCACCA
DNA 1: CAATCTGAATTCCGGTCTCCC
DNA 2: TGGTGGCTACGACGGGATT
B5: AAACGCC (DNA:RNA)
RNA: B1 RNA with C25A, C27A, U28C, U29G, G31C
DNA 1: CAATCTGAATTCCGGTCTCCC
DNA 2: TGGTGGCTACGACGGGATT
B6: UCAUCCA (DNA:RNA)
RNA: B1 RNA with C25U, A26C, C27A, U29C, G31A
DNA 1: CAATCTGAATTCCGGTCTCCC
DNA 2: TGGTGGCTACGACGGGATT
B7: GGUUGGC (DNA:RNA)
RNA: B4 RNA with A27U, C28U, A29G, A30G, A31C
DNA 1: CAATCTGAATTCCGGTCTCCC
DNA 2: TGGTGGCTACGACGGGATT
B8: AAGAUGA (DNA:RNA)
RNA: B1 RNA with C25A, C27G, U28A, C30G, G31A
DNA 1: CAATCTGAATTCCGGTCTCCC
DNA 2: TGGTGGCTACGACGGGATT
B9: AGGUGAC (DNA:RNA)
RNA: B4 RNA with G25A, A27G, C28U, A29G, A31C
DNA 1: CAATCTGAATTCCGGTCTCCC
DNA 2: TGGTGGCTACGACGGGATT
B10: UUCCAAA (DNA:RNA)
RNA: B4 RNA with G25U, G26U, A27C
DNA 1: CAATCTGAATTCCGGTCTCCC
DNA 2: TGGTGGCTACGACGGGATT
B11: UGGUGGG (DNA:RNA)
RNA: B1 RNA with C25U, A26G, C27G, U29G, C30G
DNA 1: CAATCTGAATTCCGGTCTCCC
DNA 2: TGGTGGCTACGACGGGATT
B12: GAGAAUA (DNA:RNA)
RNA: B4 RNA with G26A, A27G, C28A, A30U
DNA 1: CAATCTGAATTCCGGTCTCCC
DNA 2: TGGTGGCTACGACGGGATT
B13: CCUAGCG (DNA:RNA)
RNA: B1 RNA with A26C, C27U, U28A, U29G
DNA 1: CAATCTGAATTCCGGTCTCCC
DNA 2: TGGTGGCTACGACGGGATT
B14: UUCAUUU (DNA:RNA)
RNA: B1 RNA with C25U, A26U, U28A, C30U, G31U
DNA 1: CAATCTGAATTCCGGTCTCCC
DNA 2: TGGTGGCTACGACGGGATT
B15: AUGAGCG (DNA:RNA)
RNA: B1 RNA with C25A, A26U, C27G, U28A, U29G
DNA 1: CAATCTGAATTCCGGTCTCCC
DNA 2: TGGTGGCTACGACGGGATT
B16: AUGCAAA (DNA:RNA)
RNA: B4 RNA with G25A, G26U, A27G
DNA 1: CAATCTGAATTCCGGTCTCCC
DNA 2: TGGTGGCTACGACGGGATT
B17: GUUUGUG (DNA:RNA)
RNA: B1 RNA with C25G, A26U, C27U, U29G, C30U
DNA 1: CAATCTGAATTCCGGTCTCCC
DNA 2: TGGTGGCTACGACGGGATT
B18: AGGAAAA (DNA:RNA)
RNA: B4 RNA with G25A, A27G, C28A
DNA 1: CAATCTGAATTCCGGTCTCCC
DNA 2: TGGTGGCTACGACGGGATT
B19: GUUAUGC (DNA:RNA)
RNA: B1 RNA with C25G, A26U, C27U, U28A, C30G, G31C
DNA 1: CAATCTGAATTCCGGTCTCCC
DNA 2: TGGTGGCTACGACGGGATT
B20: GUUAGAG (DNA:RNA)
RNA: B4 RNA with G26U, A27U, C28A, A29G, A31G
DNA 1: CAATCTGAATTCCGGTCTCCC
DNA 2: TGGTGGCTACGACGGGATT
B21: CCAAGGU (DNA:RNA)
RNA: B1 RNA with A26C, C27A, U28A, U29G, C30G, G31U
DNA 1: CAATCTGAATTCCGGTCTCCC
DNA 2: TGGTGGCTACGACGGGATT
B22: UGGAUUG (DNA:RNA)
RNA: B1 RNA with C25U, A26G, C27G, U28A, C30U
DNA 1: CAATCTGAATTCCGGTCTCCC
DNA 2: TGGTGGCTACGACGGGATT
B23: CCGACCC (DNA:RNA)
RNA: B1 RNA with A26C, C27G, U28A, U29C, G31C
DNA 1: CAATCTGAATTCCGGTCTCCC
DNA 2: TGGTGGCTACGACGGGATT
B24: UGCGCGA (DNA:RNA)
RNA: B4 RNA with G25U, A27C, C28G, A29C, A30G
DNA 1: CAATCTGAATTCCGGTCTCCC
DNA 2: TGGTGGCTACGACGGGATT
B25: GACUGAC (DNA:RNA)
RNA: B1 RNA with C25G, U29G, C30A, G31C
DNA 1: CAATCTGAATTCCGGTCTCCC
DNA 2: TGGTGGCTACGACGGGATT
B26: ACAGAUG (DNA:RNA)
RNA: B4 RNA with G25A, G26C, C28G, A30U, A31G
DNA 1: CAATCTGAATTCCGGTCTCCC
DNA 2: TGGTGGCTACGACGGGATT
B27: CCUCCAG (DNA:RNA)
RNA: B1 RNA with A26C, C27U, U28C, U29C, C30A
DNA 1: CAATCTGAATTCCGGTCTCCC
DNA 2: TGGTGGCTACGACGGGATT
B28: ACUAGGU (DNA:RNA)
RNA: GGGAGACCGGAAUUCAGAUUGUCCACUAGGUUUAAAUCCCGUCGUAGCCACCA
DNA 1: CAATCTGAATTCCGGTCTCCC
DNA 2: TGGTGGCTACGACGGGATT
B29: UGUACUC (DNA:RNA)
RNA: B28 RNA with A25U, C26G, G29C, G30U, U31C
DNA 1: CAATCTGAATTCCGGTCTCCC
DNA 2: TGGTGGCTACGACGGGATT
B30: AGGUAAC (DNA:RNA)
RNA: B4 RNA with G25A, A27G, C28U, A31C
DNA 1: CAATCTGAATTCCGGTCTCCC
DNA 2: TGGTGGCTACGACGGGATT
B31: AGGGGUG (DNA:RNA)
RNA: B28 RNA with C26G, U27G, A28G, G30U, U31G
DNA 1: CAATCTGAATTCCGGTCTCCC
DNA 2: TGGTGGCTACGACGGGATT

In the assay the target is T1, RBFOX1 RRM. The assay is described as follows: EMSA; HiTS-Eq, 1 nM pool, 10 min; buffer printed only for the single-RNA assays: 10 mM Tris pH 7.5, 150 mM NaCl, 3.4 mM EDTA, 0.001% NP-40, 30 C. The settings on record: tags: His6 N-terminal (pET28a); label: 5' 32P. The method, boiled down: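 These values rest on relative association constants, computed from read-count changes of each RNA species versus the control reaction and normalised to the cognate motif. Reads came from free RNA recovered by 8% native PAGE after purified RbFox RRM (wild type or mutant) at increasing concentrations was equilibrated for 10 min in 50 µL with 1 nM of a 5′-radiolabelled pool with 7 randomized nucleotides and DNA-annealed flanks.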
For orientation: A gel shift assay detects complexes by their altered migration in electrophoresis.
In the case of B1, the binding signal is 0.0103 KA relative to UGCAUGU.

Consider B2, for which the binding signal is 0.00651 KA relative to UGCAUGU.

As to B3, the binding signal was 0.00938 KA relative to UGCAUGU.

In the case of B4, the binding signal is 0.00689 KA relative to UGCAUGU.

B5: the binding signal was 0.004 KA relative to UGCAUGU.

For the molecule B6, the binding signal is 0.000335 KA relative to UGCAUGU.

On to B7, for which the binding signal was 0.0165 KA relative to UGCAUGU.

Take B8: the binding signal is 0.00959 KA relative to UGCAUGU.

As for B9, the binding signal is 0.00507 KA relative to UGCAUGU.

Take B10: the binding signal was 0.00275 KA relative to UGCAUGU.

Consider B11, for which the binding signal is 0.0153 KA relative to UGCAUGU.

Turning to B12, the binding signal is 0.00678 KA relative to UGCAUGU.

With B13, the binding signal is 0.00608 KA relative to UGCAUGU.

With B14, the binding signal was 0.00297 KA relative to UGCAUGU.

Turning to B15, the binding signal is 0.00995 KA relative to UGCAUGU.

Consider B16, for which the binding signal is 0.00287 KA relative to UGCAUGU.

Turning to B17, the binding signal is 0.0298 KA relative to UGCAUGU.

B18: the binding signal was 0.00624 KA relative to UGCAUGU.

Regarding B19, the binding signal is 0.0151 KA relative to UGCAUGU.

For the molecule B20, the binding signal was 0.0166 KA relative to UGCAUGU.

As for B21, the binding signal was 0.00772 KA relative to UGCAUGU.

Consider B22, for which the binding signal was 0.0448 KA relative to UGCAUGU.

For B23, the binding signal is 0.0013 KA relative to UGCAUGU.

On to B24, for which the binding signal was 0.0211 KA relative to UGCAUGU.

Take B25: the binding signal is 0.0236 KA relative to UGCAUGU.

Regarding B26, the binding signal was 0.00623 KA relative to UGCAUGU.

As for B27, the binding signal was 0.00545 KA relative to UGCAUGU.

Take B28: the binding signal was 0.00716 KA relative to UGCAUGU.

Take B29: the binding signal is 0.00909 KA relative to UGCAUGU.

For B30, the binding signal is 0.0143 KA relative to UGCAUGU.

On to B31, for which the binding signal is 0.0282 KA relative to UGCAUGU.
